# Measurements from the supplement of paper PMC11417369.
# ± gives the standard deviation of the averaged measurements. The list shows a part of the results.
# Test system: PfAP2-LT AP2 domain (GST-tagged)
# Assay: gcPBM binding intensity (ln(normalized median fluorescence intensity)); higher = stronger DNA binding
# Outline: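 An Agilent 4 × 180k array of primer-extended double-stranded 36-bp intergenic genomic probes, with negative controls, was incubated for 1 h with GST-tagged P. falciparum DNA-binding domains expressed in E. coli. Alexa488 anti-GST antibody detected bound protein, scanned at 488 nm. Binding intensity is the highest Masliner-normalised natural-log median intensity across replicate spots of either probe orientation.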
row,Sequence,gcPBM binding intensity (ln)
1,CCATAAAAAGGATACACACACACACCGACATATATA [CACACA_site4653],10.2 ± 0.23
2,TTTGAAAAGTATGAGGTGCAAAAAATGTAATGAAAT,9 ± 0.52
3,CATTTTAAAACAGACACACACCAAAAAAAAAAAAAA [CACACA_site6259],9.04 ± 0.49
4,TTTTTCTGTCGTTGTTGTACTTGAGGAGTAACAATT [XGTACX_site7852],8.81 ± 0.38
5,TATATTATTATGCATAGTACGTACTGTGATAAGAAT [XGTACX_site2956],8.88 ± 0.3
6,TACAAATACATTACATGTACATATTTAATAATATCA [XGTACX_site2075],8.71 ± 0.45
7,TTTTCAATTAATAATACACACATGTATATATTATTA [CACACA_site3311],8.8 ± 0.29
8,AAGAAAAATATATATATAAATAAATAAATATATATA [TGCATGCA_negctrl_site330],8.59 ± 0.44
9,TTTCTGATATTTTTATATTTTCTTATATATATATAT [GTGCAC_negctrl_site652],8.77 ± 0.52
10,TTTAAATTTTAATATGCACACAAAATGTTATATTAA [CACACA_site8015],8.64 ± 0.46
11,GTATATAAGTATATATGTACATATATTTTATATATA [XGTACX_site4745],8.7 ± 0.42
12,ATATAAGAATAAATAGTGCAAAATAAATGATTATTT,8.96 ± 0.46
13,AATACGAAGGATAAGAGTACTAATTAAATAAATGAA [XGTACX_site523],8.92 ± 0.58
14,TTTTTTTTTTTTTTGGTGCGATCTTTTAAATGATCC,8.5 ± 0.48
15,TTTTATAATTTAAAATAATGAAACTTCTTTCTATTT [TGCATGCA_negctrl_site324],8.14 ± 0.56
16,GCCTTTTTATTTAGAACACACACAAAAAAAAAAAAA [CACACA_site8520],8.77 ± 0.35
17,TATTATATCGAACACTGTACTTTTTTATTCAACCTA [XGTACX_site493],8.65 ± 0.51
18,ATATATATATATATAGTGCAAATATCTTCTTTATAA,9.12 ± 0.11
19,TAATAAACCAAACTAAACAATATATCAAAAAGCACA [CACACA_negctrl_site269],8.9 ± 0.42
20,AATAATAAATATATATATATATATATATATATATTT [CACACA_negctrl_site786],9.04 ± 0.21
21,TGACTACATAAAATGACACACACAAACTTTAAAATT [CACACA_site9151],9.28 ± 0.34
22,ATATATTTTTAGCACAGTACAATATAATTAAATATA [XGTACX_site6779],8.6 ± 0.35
23,ATATGCTAATAAAATTGTACATATTATTCATATTGT [XGTACX_site2344],8.77 ± 0.48

row,Sequence,gcPBM binding intensity (ln)
1,CAATTAAAGAAAAACAGTACGTGTATCAAACATCCT [XGTACX_site8990],8.89 ± 0.49
2,ATTTTTCCTCTCTTTTGTACTTATATATATATATAT [XGTACX_site7405],9.25 ± 0.42
3,ATAAATACTTTTTGGTGTACACTTTTAAATGAAAAA [XGTACX_site3042],8.39 ± 0.42
4,ATATTATATAATAATGCATGCACCTTATTTTCATTT [TGCATGCA_site405],9.26 ± 0.28
5,AACAAAATAAAAATAACACACACATTTATATATATA [CACACA_site8313],9.43 ± 0.33
6,ATTATATTATTTTAAAGTACACACATATATTAATAT [XGTACX_site4769],8.93 ± 0.31
7,AAAAGTTGTTTATAATGTACAAGGTAGAAAAAAACA [XGTACX_site1454],8.78 ± 0.38
8,TAAATGGATTGTTCAGGTACACATAAATATGATATT [XGTACX_site6963],8.66 ± 0.45
9,TAAAAATAATATATTTGTACATATGTGTATACATAA [XGTACX_site741],8.54 ± 0.4
10,TCCTAAAAAAAAAAAAAAAATGAAAAAGGAAAAAAA [CACACA_negctrl_site1646],8.29 ± 0.63
11,TATAAATACATACATACACACATATATATATATATT [CACACA_site6116],9.32 ± 0.25
12,CAAGCACAGAAACACACACACACACCGACACAGACA [CACACA_site4359],10.1 ± 0.15
13,AAAAAAAAAAAAAAAAGTACTAAATGTAAAAGAATA [XGTACX_site2164],8.73 ± 0.77
14,AATGTATTAAAATTACGTACATATGCACATTTTATA [XGTACX_site5046],8.76 ± 0.44
15,TTTTTTATTTTGTGCACACACATAAAAATATAAATA [CACACA_site6497],8.94 ± 0.35
16,TACTCTTTCCAGAAGTGTACATAGAAATAATTACAT [XGTACX_site2668],8.57 ± 0.45
17,AAAAAAAAAAAAAAAAAAATAAAAAATAAATAAATA [CACACA_negctrl_site1498],8.33 ± 0.71
18,TATATATGTATGTATGCATGCCCTTTTTTAAAAAAA [TGCATGCA_site434],8.77 ± 0.43
19,AAGAAAAAACAAACATGTACACATAATTTAGTTTTT [XGTACX_site3121],8.81 ± 0.48
20,TTTTTTTTTTTTTTTTGTACATAATTATATATTTAC [XGTACX_site7540],8.66 ± 0.38
21,TAGTATTATTATTATGCACACAAAAATATTTATACA [CACACA_site9219],8.81 ± 0.45
22,AGCATTTCTTTTACATGTACATAATATTTTTAATAA [XGTACX_site1968],8.8 ± 0.41
23,TTTTTTTTTACTTGTTGTACTTTTTCAAGGTATTGT [XGTACX_site7778],9.01 ± 0.5

row,Sequence,gcPBM binding intensity (ln)
1,ATATAAAAAAATTGCACACATAAATAAATACAGATA [CACACA_site4806],9.13 ± 0.42
2,TAAAAATTGAAGCACACACACAAAAGAAATACAATA [CACACA_site1113],9.71 ± 0.37
3,ATATTTACAAGTAATAGTACAGTTAATTATATAAAA [XGTACX_site4856],8.55 ± 0.52
4,ATTATATAGCTAAAAAAAATAAATTAAAAATATTAA [TGCATGCA_negctrl_site505],8.37 ± 0.45
5,AAGAATGTTATTAGTACACACAATTATTATAGAAAT [CACACA_site7714],8.99 ± 0.42
6,AATGTACAAATACGTACACACATATTTATATTTATA [CACACA_site6833],8.98 ± 0.43
7,TATATATATATATATACATGCATACATATACATACA [TGCATGCA_site897],9.65 ± 0.16
8,ATATATATATATAATAAACACACAAATAGATATAAC [CACACA_site9234],9.26 ± 0.37
9,CTACCTTTAATATATACACACACATAAAAAAAATAT [CACACA_site8548],9.38 ± 0.3
10,AGATAAGATATATACACACACATAAATACGTACAAA [CACACA_site6639],9.62 ± 0.39
11,AATGTACCCACACCCACACACAAACAAATATATATA [CACACA_site2751],9.74 ± 0.29
12,AGATTAAAATATATACGTACATATTATTAATTAATA [XGTACX_site3487],8.6 ± 0.45
13,ATAGGATGCATATGAGTGCATTCTGTGTTGTTATAA,8.77 ± 0.43
14,AAACAATATTCTCAAGTGCAAAAAGAAAAAAGAAAT,9.01 ± 0.5
15,TACTTGTTATTAACATGTACAAAAAAAAAAAAAATT [XGTACX_site1338],8.46 ± 0.42
16,TTTATTTTTATTTAAAGTACATATCCATTTATTCCT [XGTACX_site1914],8.49 ± 0.53
17,ACCCATATAATATATACACACATATATATATATATA [CACACA_site4731],9.855 ± 0.035
18,ATTTTCTTATATATATTTTGTATATATTTTGTACAT [CACACA_negctrl_site1496],9.21 ± 0.49
19,AAAAAAAAAATTAAATGTACACACACCTTAAACAAT [XGTACX_site3848],9.3 ± 0.28
20,TAATGTATTATATTTTGTTTTCTTCCACCAAAAAAA [XGTACX_negctrl_site64],8.22 ± 0.43
21,AATTCGTACCTCATTTGTACATATATATATATATAT [XGTACX_site5513],9.56 ± 0.23
22,TTTTTTATAGTACATTACCAAAAAAAAAAAAAAAAA [GTGCAC_negctrl_site549],7.97 ± 0.51
23,CATACACCCATACATACACACATACAGATATATATA [CACACA_site5123],9.29 ± 0.33

row,Sequence,gcPBM binding intensity (ln)
1,ATATATTGCACTTTTTGTACATAATGAAAAATTTTT [XGTACX_site8223],8.62 ± 0.43
2,TACATATTGATATATACACACAAAAAAATAAATTCT [CACACA_site6198],8.97 ± 0.37
3,ACCTTAATAAAAAAAAGTACAAACATGTTCAAATTG [XGTACX_site1556],8.73 ± 0.5
4,ATCTCTGTATGTTAGACACACATATTTTAATATGTT [CACACA_site4244],9.02 ± 0.42
5,TAAAATTTGTACATAGTGCAATTTTTTTTTTTTTTT,8.4 ± 0.35
6,TCACCATATAAACGTGCACACTACAAAAATATATAA [CACACA_site5413],8.88 ± 0.45
7,CTTTTATTTTATTTTAGTACGCAACATTCTCTATAT [XGTACX_site7279],8.86 ± 0.54
8,TATTTATTTAAAAATTGTACGTAGGATTATACACTT [XGTACX_site286],8.58 ± 0.51
9,ATATAAATATTATAATGTACATATAATATATTTATT [XGTACX_site5212],8.6 ± 0.37
10,AGTGATTATTAATAATGTACATATCTATAAATATAT [XGTACX_site4734],8.7 ± 0.49
11,TTTTTTTTTTTTTTCTTACAATTTATTGAACAAATG [XGTACX_negctrl_site515],8.34 ± 0.4
12,TAGTTTTTTATATATTGTACAAATAATATATGATAT [XGTACX_site4220],8.7 ± 0.39
13,AATAAATAAATATATATATATATATATATATATATA [CACACA_negctrl_site365],9.67 ± 0.28
14,TATCAAAATTGTAATTGTACTTGTAAGTGGATATAT [XGTACX_site5949],8.66 ± 0.42
15,ACAATTTACACTTAAACACACAAAAAAAAGTTATAT [CACACA_site7056],8.9 ± 0.38
16,TATATATTTCATCCTTGTACACATTTGTGTTTACAT [XGTACX_site1132],9.23 ± 0.52
17,GTATTGCATGAGGACACACACAAAAAAAATATAGAT [CACACA_site6500],9.45 ± 0.47
18,TTATAAAATATTTATGCATGTGAAGAATATTATAAA [TGCATGCA_site1047],8.48 ± 0.35
19,GAAAAAAGTATCAAGGTGCGTATATACATCAAAATA,9.02 ± 0.52
20,AATAGTCGGGTGCATACACACCTTAAATATAATATA [CACACA_site8271],8.77 ± 0.55
21,TTCTTACATGAGTGTACACACTTTTTTTCAGAAAAT [CACACA_site4215],8.88 ± 0.34
